The RNAGym collection of RNA variant scans (doi:10.1093/nar/gkz1192)
Read counts are not given, so values of variants with three or more changes are uncertain.

B1: CPEB3 Ribozyme (parent)
chain: UAACAGGGGGCCACAGCAGAAGCGUUCACGUCGCAGCCCCUGUCAGAUUCUGGUGAAUCUGCGAAUUCUGCUGUAUAUCUC

Variants of: B1
Test: self-cleavage, relative activity (ratio to wild type); higher = more cleavage; in vitro, sequencing
Procedure, shortened: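 Barcoded CPEB3 ribozyme mutants, produced by rounds of error-prone PCR, self-cleaved while being transcribed with T7 RNA polymerase for 5 hours at 37°C and during a subsequent 15 min DNase I step before EDTA was added. Sequencing of template-switched cDNA on Illumina gave cleaved and total reads, and DNA sequencing assigned barcodes to variants. Each variant's relative activity is its cleaved/total read fraction divided by the unmutated ribozyme's fraction, averaged across three batches. A variant needed a minimum of 5 reads.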

| Variant | self-cleavage |
| --- | --- |
| UGACAGGCGGCCACAGCAGAAGCGUUCACGUCGCAGCCCCCGUCAGAUUCUGGUGAAUCUGCGAAUUCUGCUGUAUAUCUC | 0.47 |
| UGACAGGGGGCCACACCAGAAGUGCUCACGUCGCAGCCCCUGUCAGAUUCUGGUGAAUCUGCGAACUCUGCAGUAUAUCUC | 0.13 |
| UGACAGUGGGCCUCAGCGGAAGCGUUCACGUCGCAGCCCCUGUCAGAUUCUGGUGAAUCUGCGAAUUCUGCUGUAUAUCUC | 0.13 |
| UGACAGGGUGCCACAGCAGAAGCGUACACGUCGCAGCCCCUGUCAGAUCCUGGUGAAUCUGCGAAUUCUGCUGUAUAUCUC | 0.08 |
| UGACAGGGAGCCACAGCAGAAGCGUUCACGUCGCAUCCCCUGUCAGAUUCUGGUGAAUCUGCGUAUUCUGCUGUACAUCUC | 0.03 |
| UGACAGGGAGCCACAGCAGAAGCGUUCACGUCGCAGCCCCUGUCAGAUUCUGGUGAAUCUGCGAGUUCUGCUGUAUAUCUC | 0.06 |
| UGACAGGGGACCACAGCUGAAGCGUUCACGUCGCAGCCCCUGCCAGAUUCUGGUGAAUCUGCGUAUUCUGCUGAAUAUCUC | 0.07 |
| UGACAGGGGGCCACAGCAGAACCGUUCGCGUCGCAGCCCCUGUCAGAUUCUGGUGAAUCUGCGAAUUCUGCUGUAUAUCUC | 0.08 |
| UGACAGGAGGCCACAGCAGAAGCGUCCACGUCGCAGCCCCUGUCAGAUUCUGGUGAAUCUGCGAACUCUGCUGUAUAUCUC | 0.28 |
| UGACAGGGAGCCACAGCAGAAGCGUUCACGUCGCAGCCCCUGUCAGAUUCUGGUGAAUCUGCGAAUUCUGCUGUGUGUCUC | 0.13 |
| UGACAGGGAGCCACAGCAGAUGCGCUCACGUCGCAGCCCCUGACAGAUUCUGGUGAAUCUGCGAACUCUGCUGUAUACCUC | 0.06 |
| UGACAGGGGACCACAGCAGGAGCGUUCACGUCGCAGCCCCUGUCAGAUUCAGGUGAAUCUGCGAAUUCUGCUGUAUAUCUC | 0.4 |
| UGACAGGGAGCCACAGCAGAAGCGUUCACGUCGCAGCCCCUGUCAGAUUCUGGUGAAUCUGCGAAUUCUGCUGUAUACCUC | 0.08 |
| UGACAGGGAGCCACAGCAGAAGCGUUCACGUCGCAGCCCCUGUCAGAUUCUGGUGAAUCUGCGAAUUCCGCUGUAUAUCUC | 0.43 |
| UGACAGGGGACCACAGCAGAAGCGUUCACGCCGCAGCCCCAGUCAGAUUCUGGUGAAUCUGCGAAUUCUGCUGGAUACCUC | 0.04 |
| UGACAGGGUGCCACAGCAGAAGCGUUCUCGUCGCAGCCCCUGUCAGAUUCUGGUGUAUCUGCGAAUUCUGCUGUAUAUCUC | 0.05 |
| UGACAGGCUGCCACAGCUGAAGCGUUCACGUCGCAGCCCCUGUCAGAUUCUGGUGAAUCUGCGAAUUCUGCUGUAUAUCUC | 0.33 |
| UGACAGGAGGCCACUGCAGAAGCGUUCACGUCGCAGCCCCUGUCAGAUUCUGGUGAAUCUGCGAAUUCUGCUGUAUAUCUC | 0.08 |
| UGACAGUGGGCCACGGCAGAAGCGCUCACGUCGCAGCCCCUGCCAGAUUCAGGUGAAUCUGCGAAUUCUGCUGUAUAUCUC | 0.04 |
| UGACAGGGGGCCACAGCAAAAGCGUUCAUGUCGCAGCCCCUGCCUGAUUCUGGUGAAUCUGCGAAUUCUGCUGUAUAUCUC | 0.04 |
| UGACAGCGGGCCACAGCAGACGCGUUCACGUCGCAGCCCCUGUCAGAUACUGGUGAAUCUGCGAUUUCUGCUGUAUAUCUC | 0.17 |
| UGACAGGAGGCCACAGCAGAAGCGUUCACGUCGCAGCCCCUGACAGAUUCUGGUGAAUCUGCGAAUCCCGCUGUAUAUCUC | 0.06 |
| UGACAGGUGGCCACAGCAGAAGCGUUCACGUCGCAGCCCCCGUCAGAUUCUGGUGAAUCUACGAAUUCUGCUGUAUAUCAC | 0.33 |

| Variant | self-cleavage |
| --- | --- |
| UGACAGGGGGCCACAACAGAAGCGUUCACGUCGCAGCCCGUGUCAGAUUCUGGUGAAUCUGCGAAUUCAGCUGUAUAUCUC | 0.17 |
| UGACAGGGGGCCACAUCAGAAGCGUUCACGUCGCAGCCCCUGUCAGAUUCCGGCGAAUCUGCGAAUUCUGCUGUAUACCUC | 0.09 |
| UGACAGUGGGCCACCGUAGUAGCGUUCACGUCGCAGCCCCUGUCAGAUUCUGGUGAAUCUGCGAAUUCUGCCGUGUAUCUC | 0.04 |
| UGACAGGGUGCCACUGCAGAAGCGUUCACGUCGCAGCCCCUGUCUGAUUCUGGUGAAUCUGCGAGUUCUGCUGUAUAUCUC | 0.2 |
| UGACAGGGGGCCACAGCAGAAACGUUCACGUCGCAGCCCCUGUCAGUUUCUGGUGAAUCUGCGGAUUCUGCUGUAUAUCCC | 0.31 |
| UGACAGGGAGCCACUGCGGAAGCGCUCACGUCGCAGCCCCUGUCAGAUUCUGGUGAAUCUGCGAAUUCUGCUGUAUAUCUC | 0.31 |
| UGACAGGGGGCCACAGCAGAAACGUUCACGUCGCAGCCCCUGUCAGAUUCUGGUGAAUCUGCAAAUUCUGCUGUAUAUCUC | 0.18 |
| UGACAGGGUGCUACAGCCGAAGCGUUCACGUCGCAGCCCUUGUCAGAUUCUGGUGAAUCUGCGAAUUCUGCUGUAUAUCUC | 0.31 |
| UGACAGGUGGCCACAGCAGAAGCGUUCACGUCGCAGCCCCUGUCAGAUUCUGGUGAAUCUGCGAAUUCUGCUAUAUAUCUC | 0.5 |
| UGACAGGGGGCCACAACAGAAGCGUUCACGUCGCAGCCCCUGUCAGAUUCUGGUGAAUCCGCGAAUUCUGCCGUAUAUCUC | 0.15 |
| UGACAGGCCGCCACAGCUGAAGCGUUCACGUCGCAGCCCCUGUCGGAUUUUGGUGAAUCUGCGAAUUCUGCUGUACAUCUC | 0.08 |
| UGACAGGGGGCCACAGCAGAAGCAUUCACGUCGCGGCCCCUGUCAGAUUCUGGUGAAUCUGCGAAUUCUGCUGUAUACCAC | 0.23 |
| UGACAGGGGGCCACAGCAUAAGCGUUCUCGUCGCAGCCCCUGUCAGAUUCUGGUGAAUCUGCGAAUUCUGCUGUAUAUCUC | 0.05 |
| UGACAGGGAGCCACAGCAGAAGCGUUCACGUCGCUGCCCCUGUCAGAUUCUGGUGAAUCUGCGAAUACUGCGGUAUAUCUC | 0.05 |
| UGACAGGGGGCCACAACAGAAGCGUUCACGUCGCAGCCCCUGUCAGGUUCUGGUGAAUCUGCGAAUUCUGCUGUAUAUCUC | 0.09 |
| UGACAGGGGGCCACAACAGAAGCGUUCACGUCGCAGCCCGUGUCAGAUUCUGGUGAAUCUGCGGAUUCAGCUGUAUAUCUC | 0.24 |
| UGACAGGGGUCCACAGCAGAAGCAUCCACGUCGCAGCCCCUGUCAGAUCCUGGUGAAUCUGCGAAUUCUGCUGUAUAUACC | 0.04 |
| UGACAGGGUGCCACAGCAGUAGCGCUCACGUCGCAGCCCCUGUCAGGUCCUGGUGAAUCUGCGAAUUCUGCUGUAUAUCUC | 0.28 |
| UGACAGGGGGCCACAGCAGAAGCAUCCACGUCGCAGCCCCUGUCGGAUUCUGGUGAAUCUGCGAAUUCUGCUGCUUAUCUC | 0.09 |
| UGACAGGUGGCCACAGCAGAAGCGCUCACGUCGCAGCCCCCGUCAGGUUCUGGUGAAUCUGCGAAUUCUGCUGUAUAUCCC | 0.43 |
| UGACAGGGUGCCACAGCAGAAGCGCUCACGUCGCAGCCCCUGUCAGAAUUUGGUGAAUCCGCGAAUUCUGCUGUAUAUCUC | 0.07 |
| UGACAGGGGGCCACAACAGAAGCGAUCACGUCGGGGCCCCUGUCAGAUUCUGGUGAGUCUGCGAAUUCUGCUGUAUAUCUC | 0.15 |
| UGACAGGGAGCCACAGCAGAAGCGUUCACGUCGCUGCCCCUGUCAGAUUCAGGUGAAUCUGCGAAUUCUGCUGUAUAUCAC | 0.04 |

| Variant | self-cleavage |
| --- | --- |
| UGACAGGGAGCCACAGCAGAAGCGUUCACGUCGCAGCCCCCGUCAGAUUCUGGUGAAUCUGCGAAUUCUGCUGUAUGUCUC | 0.32 |
| UGACAGGGGACCACAGCAGAAGCGUUCACGUCGAAGCCCCAGUCAGAUUCUGGUGAAUCUGCGAAUUCUGCUGUAUACCUC | 0.04 |
| UGACAGGGGGCCACAGCAUAAGCGUUCACGUCGCAGCCCCUGUCAGAUUCUGGUGAAUCUCCGAAUUCUGCUGUAUAUCUC | 0.2 |
| UGACAGGAGGCCGCAGCAGAAGCGUUCACGUCGCAGCCCCUGUCAGAUUCUGGUGAAUCUGCGAAUUCUGCUGUAUAUCUC | 0.53 |
| UGACAGGGGGCCACAGCAGAAGCAUUCACGCCGCAGCCCCUGUCAGAUUCAGGUGAAUCUGCGAAUACAGCUGUAUAUCUC | 0.31 |
| UGACAGGGGAUCACAGCAGAAGCGCUCACGUCGCAGCCCCUGUCAGAUUCUGGUGAAUCUGCGAAUUCUGCUGUAUAUCUC | 0.05 |
| UGACAGGGAGACACAGCCGAAGCGUUCACGUCGCGGCCCCUGUCAGAUUCUGGUGAAUCUGCGAAUUCUGCCGUUUAUCUC | 0.05 |
| UGACAGGGAGCCACAGCAGAAGCGUUCACGUCGCAGCCCCUGUCGGAUUCUGGUGAAUCUGCGAAUUCUGCUGUAUAUCUC | 0.07 |
| UGACAGGGAGCCACAGCUGAAGCAUUCACGUCGCAGCCCCUGUCAGAUUCUGGUGAAUCUGCGAACUCUGCUGUAUAUCUC | 0.27 |
| UGACAGUGGGCCACAGCAGAAGCGUUCACGUCGCAGCCCCUGUCAGAUUCUGGUGAAUCUGCGGAUUCUGCUGUAUACCUC | 0.22 |
| UGACAGGGGACCACAGCAGAAGCAUUCACGUCGCAGCCCCUGUCAGAUUCUGGUGUAUCUGCGGAUUCUGCUGUAUAUCUC | 0.05 |
| UGACAGGGGUCCACAGCAGAAGCAUUCACGUCGCGGCCCCUGCCAGAUUCUGGUGAAUCUGCGAAUUCUGCUGUAUAUCAC | 0.04 |
| UGACAGGGGUCCACUGCAGAAGCGUUCACGUCGCAGCCCCUGUCAGAUUCUGGUGAAUCUGCGAAUUCUGCUGUAUAUCUC | 0.28 |
| UGACAGGUGGCCACAGCAGGAGCGAUCACGUCGCAGCCCCCGCCAGAUUCUGGUGAAUCUGCGAAUUCUGCUGUAUGUCUC | 0.23 |
| UGACAGGGGUCCACAGCAGAAGCGUUCACGUCGCAGCCCCUGUCAGAUUCUGGUGAAUUUGCGAAUUCUGCUGUAUAUCUC | 0.29 |
| UGACAGGGGACCACAGCAGAAGCGUUCACGUCGCAGCCCCUGUCAGAUUCUGGUGAAUCUGCGAAUUCAGCUGCAUAUCUC | 0.2 |
| UGACAGCGGGCCACAGCAGAGGCGUUCACGUCGCAGCCCCUGUCAGAUUCUGGUGAAUCUGCGAAUUCUGCUGUAUAACUC | 0.1 |
| UGACAGGGAGCCACAGCAGAAGCGUUCACGUCGCAGCCCCUGUCAGAUUCUGGUGAAUCAGCGUAUCCUGCUGUAUGUCGC | 0.03 |
| UGACAGGGGGCCACAGCAGAAACGCUCUCGUCGCAGCCCCCGUCAGAUUCUGGUGAAUCUGCGAAUUCUGCUGUAUAUCCC | 0.05 |
| UGACAGGAGGCCACAGCAGCAGCGUUCACGUCGCAGCCCCAGUCAGUUUCUGGUGAAUCUGCGAAUUCUGCUGUAUAUCUC | 0.07 |
| UGACAGGGGGCCACAUCAGAAGCGUUCGUGUCGCAGCCCCUGUCACAUUCUGGUGAAUCCGCGAAUUCUGCUGUUUAUCUC | 0.16 |
| UGACAGGAGGCCACAGCAGUAGCGUUCACGUCGCAGCCCCUGUCAGAUUCUGGUGAAUCUGCGAAUUCUGCUGCUUAUCUC | 0.04 |
